# Data published in paper PMC4336329 (PLoS ONE, 2015).
# Among all 310,000 compounds or so, about 2,200 (0.71%) showed an effect of 50% or more. Effects have a minus sign here. The list shows a part of the results.
# Target: human ether-à-go-go-related gene (hERG) potassium channel (human, UniProt Q12809)
# Test: primary screen, population patch clamp on CHO cells stably expressing hERG
# Chain of human ether-à-go-go-related gene (hERG) potassium channel (Q12809 whole entry, looked up): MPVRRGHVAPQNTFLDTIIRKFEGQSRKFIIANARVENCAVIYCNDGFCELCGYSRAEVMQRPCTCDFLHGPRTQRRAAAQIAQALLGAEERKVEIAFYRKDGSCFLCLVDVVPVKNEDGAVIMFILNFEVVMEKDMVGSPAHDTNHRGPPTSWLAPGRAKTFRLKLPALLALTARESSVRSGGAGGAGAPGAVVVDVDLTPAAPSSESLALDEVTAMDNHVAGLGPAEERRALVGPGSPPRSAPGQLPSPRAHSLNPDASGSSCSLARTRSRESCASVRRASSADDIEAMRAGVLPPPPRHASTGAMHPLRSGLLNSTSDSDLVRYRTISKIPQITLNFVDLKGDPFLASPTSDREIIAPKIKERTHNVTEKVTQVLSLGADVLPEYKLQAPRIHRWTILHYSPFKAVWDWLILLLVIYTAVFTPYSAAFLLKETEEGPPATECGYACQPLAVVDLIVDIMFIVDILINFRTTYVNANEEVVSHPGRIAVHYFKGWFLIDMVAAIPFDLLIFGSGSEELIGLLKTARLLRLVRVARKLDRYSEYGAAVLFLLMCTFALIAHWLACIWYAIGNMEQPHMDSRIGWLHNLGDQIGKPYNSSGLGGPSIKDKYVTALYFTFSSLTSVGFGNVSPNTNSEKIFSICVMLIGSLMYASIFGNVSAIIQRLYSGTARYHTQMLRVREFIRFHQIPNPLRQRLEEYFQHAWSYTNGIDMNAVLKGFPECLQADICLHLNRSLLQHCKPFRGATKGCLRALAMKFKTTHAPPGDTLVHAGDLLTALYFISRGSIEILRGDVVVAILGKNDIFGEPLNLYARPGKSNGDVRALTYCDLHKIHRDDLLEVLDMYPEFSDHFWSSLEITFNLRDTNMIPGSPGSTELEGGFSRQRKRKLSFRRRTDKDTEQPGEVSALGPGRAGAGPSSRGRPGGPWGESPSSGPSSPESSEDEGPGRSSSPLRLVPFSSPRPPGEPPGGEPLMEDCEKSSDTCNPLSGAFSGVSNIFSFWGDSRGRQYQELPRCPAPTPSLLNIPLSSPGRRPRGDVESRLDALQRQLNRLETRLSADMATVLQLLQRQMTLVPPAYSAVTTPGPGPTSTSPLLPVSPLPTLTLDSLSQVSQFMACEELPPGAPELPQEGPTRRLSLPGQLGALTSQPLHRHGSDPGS
row,Structure (SMILES),"hERG current change (%, negative = inhibition) at 1uM [%]"
1,CN(C(=O)CC(NC(=O)c1ccccc1)(c1ccccc1)c1ccccc1)c1ccccc1,10.2
2,Cc1ccc(Cl)cc1N1CCN(C(=O)c2cc3c(=O)[nH]c4ccccc4c3n2C)CC1,10.4
3,Cc1nc2ccccn2c1-c1ccnn1S(=O)(=O)c1ccc(F)cc1,6.97
4,Cc1ccc(S(=O)(=O)Nc2nonc2C)cc1,3.47
5,CCCCCn1c(=NC(=O)c2cccnc2)c(C#N)cc2c(=O)n3cccc(C)c3nc21,-5.66
6,CCCSC1=C(C#N)C(c2ccccc2OCC)CC(=O)N1 (centres unmarked),2.13
7,O=C(CCNS(=O)(=O)c1ccc2[nH]c(=O)oc2c1)NCc1ccccc1,3.2
8,Cc1ccnc(SCC(=O)N2CCC(C(N)=O)CC2)n1,-6.25
9,CCc1nn2c(NCCCO)cc(C)nc2c1-c1ccc(F)cc1,12
10,CC(Oc1ccc(F)cc1)c1ccnc2nc(/N=C/N(C)C)nn12 (centres unmarked),9.12
11,Cc1ccc(S(=O)(=O)N2CCC(C(=O)N[C@@H](C)C(=O)NCc3ccccc3)CC2)cc1,6.93
12,COc1ccc(NC(=O)C(NC(=O)Cc2cccs2)c2ccc(C)cc2)cc1 (centres unmarked),3.62
13,CN(C(=O)OCc1ccccc1)C(CC(N)=O)C(=O)O (centres unmarked),8.56
14,CCCCn1cnc2c(cnn2-c2ccc(F)cc2)c1=O,10.4
15,COc1ccc(-c2sc3ccc(N4CCOCC4)cc3c2-c2ccc(O)cc2)cc1,13.7
16,COc1cc(C(C(=O)NC2CCCC2)N(C(=O)c2snc(C(N)=O)c2N)c2ccccc2)cc(OC)c1OC (centres unmarked),-0.496
17,CC(C)c1cccc(C(C)C)c1NC(=O)CN1CCCC1,15.5
18,COc1ccc(-c2oc3ccccc3c2C(=O)OCc2ccccc2OC)cc1,4.5
19,COc1ccc(N2C(=O)CCC(C(=O)NCc3cccnc3)C2c2ccc(OC)c(OC)c2)cc1 (centres unmarked),7.03
20,CCC(CC)COC(=O)C(C#N)c1nc2ccccc2nc1N1CCOCC1 (centres unmarked),4.5
21,CN(CCn1ccnc1)Cc1cn(-c2ccccc2)nc1-c1ccc2c(c1)OCO2,-5.1
22,COCCCn1c(=O)/c(=C\c2ccc(OC(F)F)c(OC)c2)s/c1=C(/C#N)C(N)=O,9.72

row,Structure (SMILES),"hERG current change (%, negative = inhibition) at 1uM [%]"
1,COc1ccccc1N1C(=O)C2CC=CC(C)C2C1=O (centres unmarked),16.5
2,CCOC(=O)NC(NCCc1ccccc1)(C(F)(F)F)C(F)(F)F,18.9
3,O=C(O)Cn1cnc2sc3c(c2c1=O)CCCC3,11
4,O=C(NC1CCCCC1)c1cccc(S(=O)(=O)N2CCCCC2)c1,8.62
5,Cc1cc(Cl)c2c(c1)[C@]1(C(=O)N2)[C@@H]2C(=O)N(Cc3ccccc3)C(=O)[C@@H]2[C@@H]2CCCN21,9.42
6,COc1ccc(N2CCN(C3CC(=O)N(Cc4ccc(N5CCCC5=O)cc4)C3=O)CC2)cc1 (centres unmarked),9.23
7,O=C(NC1CC1)C1=C[C@H](c2ccc(Br)cc2)C[C@H](OCc2ccc(CO)cc2)O1,-4.05
8,Cc1cc(C(=O)NN)c2cc(Br)ccc2n1,5.89
9,COc1ccc(OCc2cc(/C=N\NC(=O)c3ccccc3)ccc2OC)cc1,-5.5
10,O=C(Nc1ccccc1)Nc1cccc(Cl)c1,12.8
11,Cc1occc1C(=O)Nc1cccc([N+](=O)[O-])c1,5.97
12,Cc1cnnc2ccc3c(no[n+]3[O-])c12,13
13,COc1ccc(C2C(C(=O)OCC(=O)Nc3ccc(C)cc3)CCC(=O)N2c2ccc(OC)cc2)cc1 (centres unmarked),-9.66
14,CN(C)C(=O)Nc1cnc2ccccc2c1,5.92
15,Cc1cccc2cc(CN(Cc3cccnc3)C(=O)c3cccs3)c3nnnn3c12,-1.24
16,O=C(NC1CCCC1)C1CCN(C(=O)c2ccccc2Cl)CC1,15.7
17,COc1ccc(CNC2CCSc3ccccc32)cc1OC.O=C(O)C(=O)O (centres unmarked),14.8
18,CCOC(=O)CSc1ccc(S(=O)(=O)N2CCCC2)cc1[N+](=O)[O-],5.74
19,CC(C)CNC(=O)COC(=O)CNC(=O)c1cc(Cl)cc([N+](=O)[O-])c1,-6.29
20,CC(NC(=O)CN1CCN(c2ccccc2F)CC1)c1ccccc1 (centres unmarked),7.76
21,COc1ccc(C2=NN(C(=O)c3ccco3)C(c3cc4ccccc4nc3Cl)C2)cc1 (centres unmarked),12
22,COc1ccc(N2CC(C(=O)OCC(=O)Nc3cc(C)on3)CC2=O)cc1 (centres unmarked),9.53
